In the supplement of paper PMC10338343:
± gives the standard deviation. Over roughly 5,500 sequences, “pre-steady-state target cleavage rate” has its median near 0.1; the highest 2% begin near 0.64. This is a selection; strong and weak results do not stand in their true shares.

The sequences below were run on MIWI (PIWIL1) piRISC loaded with piRNA #2 (30 nt) (assay: pre-steady-state target cleavage rate (min^-1); MIWI and MILI are mouse PIWI proteins and EfPiwi is from a freshwater sponge; tags in brackets are library labels; higher = faster piRNA-guided slicing of the target). Conditions: guide: piRNA #2 5'p-UUAGGUAACCCAGUAGAUCCAGAGGAAUUC; auxiliary factor: 500 nM mouse GTSF1.
Description: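 Cleave-'n-Seq: a library of target RNAs (target site embedded in constant flanks, ACAGCATTCCGCGTTAGTGATATCCG... 5' flank; DNA-blocked outside the site) at 0.1 nM was incubated with 1 nM active mouse MILI or MIWI piRISC (synthetic 5'-monophosphorylated piRNA guide) with or without 500 nM mouse GTSF1 at 33 °C for 1 min to 16 h. Uncleaved targets were sequenced and normalised to non-target controls, and the pooled three trials were fitted to a burst-and-steady-state model to give the pre-steady-state cleavage rate (min^-1; k3 is constrained to at most 1e-4). Sequence is the target site only; target names encode pairing extent (gX:gY) and contiguous / 1-mismatch / 2-mismatch / bulge geometry. Fits with R² ≤ 0 are excluded.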
For GAAUUGCUCUGGAUCUACUGGGUUUCCUAA, the “pre-steady-state target cleavage rate” value was 0.111 ± 0.029. CUUAAGGUCUGGAUGUACUGGGAUACCUAA was tested, and the “pre-steady-state target cleavage rate” value was 0.099 ± 0.027. In the case of GAAUUCCUCUGGAUCUACUAGGGUUACCUAA, the “pre-steady-state target cleavage rate” value is reported as 0.00393 ± 0.0033. CUAUUCCUCUGGAUCUACUGCGUUACCUAA was tested, and the “pre-steady-state target cleavage rate” value was 0.521 ± 0.065. CUUAAGGAGACCUACUACUGGGUAUACCUAA was tested, and the “pre-steady-state target cleavage rate” value was 0.0037 ± 0.0027. With CUUAAGCACUGGAUCAACUGGGUUACCUAA the “pre-steady-state target cleavage rate” value was 0.242 ± 0.025. CUUAAGCUCUGGAUCAACUGGGUAACCUAA was tested, and the “pre-steady-state target cleavage rate” value was 0.0351 ± 0.0088. In the case of CUUAAGGACUGGAUCUACUGGGUUACCUUA, the “pre-steady-state target cleavage rate” value is reported as 0.105 ± 0.041. In the case of CAAUUCCUCUGGAUCUACUGGGUUUCCUAA, the “pre-steady-state target cleavage rate” value is reported as 0.407 ± 0.063. With CUUAAGGUCUCGAUCUACUGGGUAACCUAA the “pre-steady-state target cleavage rate” value was 0.0591 ± 0.014. CUUUUCCUCUGGAUCUACUGGGGUACCUAA was tested, and the “pre-steady-state target cleavage rate” value was 0.101 ± 0.021. With CUUUACCUCUGGAUCUACUGGGUUACGUAA the “pre-steady-state target cleavage rate” value was 0.454 ± 0.028. In the case of CUUUUCCUCUGGAUCUACAGCGUUACCUAA, the “pre-steady-state target cleavage rate” value is reported as 0.129 ± 0.014. With CUAUUCCUCUGGAUCUACUGGGUAUCCUAA the “pre-steady-state target cleavage rate” value was 0.121 ± 0.033. In the case of CUAUUCCUCUCCUUCUACUGGGUUACCUAA, the “pre-steady-state target cleavage rate” value is reported as 0.569 ± 0.049. For CUUAUCCUCUGGAUCUACUGGGUGUACCUAA, the “pre-steady-state target cleavage rate” value was 0.264 ± 0.04. For CUAUUCCUCUGGAUCUACUGGGAAACCUAA, the “pre-steady-state target cleavage rate” value was 0.238 ± 0.043. With CUUAUCCUCUGGAUCUACUGGGUUACGUUA the “pre-steady-state target cleavage rate” value was 0.469 ± 0.07. CUUAUCCUCUGGAUCUACUCGGUUUCCUAA was tested, and the “pre-steady-state target cleavage rate” value was 0.0139 ± 0.0067. In the case of CUUAUCCUCAGGAUGUACUGGGUUACCUAA, the “pre-steady-state target cleavage rate” value is reported as 0.448 ± 0.051. With GAAUUCCUCUGGAUGUACUGGGUUACCUUA the “pre-steady-state target cleavage rate” value was 0.314 ± 0.048. In the case of GAAUCUCCUCUGGAUCUACUGGGUUACCUAA, the “pre-steady-state target cleavage rate” value is reported as 0.291 ± 0.054. For UAAUUCCUCUGGAUCUACUGGGUUACCUAA, the “pre-steady-state target cleavage rate” value was 0.348 ± 0.067. With CUUAAGGUCUGGAUCUACUCGGUUACGUAA the “pre-steady-state target cleavage rate” value was 0.0622 ± 0.032. For CUAUUCCUCUGGAUCUACUCGGUUAGCUAA, the “pre-steady-state target cleavage rate” value was 0.00902 ± 0.0058. With CAAUUCCUCUGGAUCUACUGGGUUACGAAA the “pre-steady-state target cleavage rate” value was 0.239 ± 0.064. CUUAAGCUCUGGGAUCUACUGGGUUACCUAA was tested, and the “pre-steady-state target cleavage rate” value was 0.229 ± 0.016. For GAUUUCCACUGGAUCUACUGGGUUACCUAA, the “pre-steady-state target cleavage rate” value was 0.348 ± 0.044. With CUUAACCUCUGCAUGUACUGGGUUACCUAA the “pre-steady-state target cleavage rate” value was 0.417 ± 0.029. For CAAUUCCUCUGGAUGCUACUGGGUUACCUAA, the “pre-steady-state target cleavage rate” value was 0.412 ± 0.047. For CUUUUCCUCUGGAUCUACUGGGUUACCUA, the “pre-steady-state target cleavage rate” value was 0.506 ± 0.07. In the case of GAAUUCCUCUGCAUCUACUGGCUUACCUAA, the “pre-steady-state target cleavage rate” value is reported as 0.104 ± 0.013. In the case of GAAUUCCUGUGGAUCUACUGGGUAACCUAA, the “pre-steady-state target cleavage rate” value is reported as 0.155 ± 0.029. In the case of CUUAAGGACUGGAUCUACUGGGUUACCCUAA, the “pre-steady-state target cleavage rate” value is reported as 0.0294 ± 0.025. CUUAAGGUCUGGUUGUACUGGGUUACCUAA was tested, and the “pre-steady-state target cleavage rate” value was 0.2 ± 0.039. In the case of CUUUUCCUCUGGAUCAACUGGGUUACCUUA, the “pre-steady-state target cleavage rate” value is reported as 0.281 ± 0.035. For CUUAAGGUCCUGGAUCUACUGGGUUACCUAA, the “pre-steady-state target cleavage rate” value was 0.0822 ± 0.012. In the case of CUUAAGGUCUGGAUCUACUGGGAAACCUAA, the “pre-steady-state target cleavage rate” value is reported as 0.0281 ± 0.012. With CAAUUCCUCUGGAUCUACUGGGUUUACCUAA the “pre-steady-state target cleavage rate” value was 0.625 ± 0.074. With CUUAUCCUCUGGAACUACUGCGUUACCUAA the “pre-steady-state target cleavage rate” value was 0.412 ± 0.038. With CUUAAGGACUUGAUCUACUGGGUUACCUAA the “pre-steady-state target cleavage rate” value was 0.0767 ± 0.028. CAAUUCCUCUCGAACUACUGGGUUACCUAA was tested, and the “pre-steady-state target cleavage rate” value was 0.57 ± 0.059. With CUUAACCUCUGGAUCUACUCGGUUACCAAA the “pre-steady-state target cleavage rate” value was 0.0543 ± 0.015. GAAUUUCUCUGGAUCUACUGGGUUACCUAA was tested, and the “pre-steady-state target cleavage rate” value was 0.134 ± 0.038. With CAGUUCCUCUGGAUCUACUGGGUUACCUAA the “pre-steady-state target cleavage rate” value was 0.382 ± 0.053. CAAUUCCUCUGGAUCAACUGGGUUACCUUA was tested, and the “pre-steady-state target cleavage rate” value was 0.438 ± 0.067.
